Experimental data as given in the RNAGym collection of RNA variant scans (doi:10.7554/elife.90254).
Read counts are not given, so values of variants with three or more changes are uncertain.

B1: LINE1-mini (parent)
chain: GGCAGAGCUCAACACAGCGUGGCAAAGUGGCUGUGGCUAGACUGCC

Variants of: B1
Assay: self-cleavage, relative activity (ratio to wild type); higher = more cleavage; in vitro, sequencing; the parent is a self-cleaving ribozyme

Variant	self-cleavage
G2C A4C C8U A16G C37A	0.02
G2C A6G A24C A25G A26U G44U C45G	0.01
G2A G30U A41C G44U	0.08
G2A G5C G36U C46A	0.05
G2A C18A U28A G30U G44U	0.36
G2A G7U C18A	0.23
G2C C10G C13U G36U C45A	0
G2C A4U U9C U20A A26U	0.03
G2C G5A C8U C46G	0.24
G2C A14C C15U G17U G21U U32A C42A	0.03
G2A G5A G40U	0.45
G2A U38A C45A	0.72
G2A G36A U38C	0.09
G2C A12C C37U U38A	0.01
G2A G5A C31U U32G G44A	0.23
G2C C3G C23G	0.09
G2A G19A U32C	0.35
G2A G5U G35U	0.38
G2C G5C A14G G19U	0.03
G2C A6C A12G A16G G33A G35U C37A	0.15
G2C A6U A25G C31A	0.06

Variant	self-cleavage
G2C C10U C18A G29A G35C	0.03
G2A G19C C46A	1.69
G2A G5C C18A U28A	0.01
G2C A4G G7U G17A C18A G22U G30C U43A	0.07
G2C A26U G35A	0.41
G2A G21U C31A C37G G44A	0.02
G2C G5A C10G G21A C42A	0.02
G2A C31G U34A	0.15
G2C C18G G21C G27U G33U U38G	0.12
G2A U20G G22C	1.46
G2C C8U C37A	0.11
G2A G27A U28A G36U	0.21
G2C G5U G17C G22U C45G	0.01
G2C C10A G22U	0.04
G2C C10A G22A	0.46
G2C C3A C23A A25C A39U	0.28
G2A G22C C31A G44A	0.12
G2C A4U G22U G44U	0.03
G2A C18U U20G C23A	0.66
G2C C10U C46G	0.07
G2A U9A A11U A12C C13U	0.03

Variant	self-cleavage
G2C C23G G35C U38C	0.06
G2C C10A C13A	0.01
G2A G36A A41G	0.49
G2C C31G C46U	0.04
G2C C15A C37G	0.04
G2A C23U U38C C45U	1.49
G2C A16C C42A	0
G2C C15U G17A G27U U28C	0.15
G2C C13U U28C C37U	0.01
G2C G17A A25G A26U U34C	0.01
G2C C10U U34G	0.05
G2C G17A U34A	0.01
G2C C8G U32G C45G	0.04
G2A C15U U34C	0.71
G2C G7U G44A	0.29
G2C C10G C15U U43A	0.01
G2C C10U G35C G40U A41C U43G	0.02
G2C G19A A24G A25G	0.13
G2A C15A C18A C23U	0.12
G2C A4U A11U G19C U34G C45G	0.01
G2C C3A G22C G29C	0.07

Variant	self-cleavage
G2A G19A A25C U32C C42G	0.12
G2C A6U C23U A41G	0.19
G2C A14U G27A	0.07
G2C A6U G7C U43C	0.42
G2A G29C C31U C37G	0.09
G2A U9G A16G G19U G35U A41G C42U	0.26
G2C G5A C18G	0.04
G2A C13U G19A	2.2
G2A G5A C10A G17A	0.05
G2A G7C A14G G17C C42A U43A	0.78
G2A C42A C46A	0.13
G2C C31U U34C	0.05
G2A C23A G29U	0.2
G2A G7U G29C G36C A39U	0.03
G2A G19U U20C G36C G40C	0.03
G2A C15U U38G	0.17
G2A G7U A16U G22U	0.43
G2C C15U A25U G29A C37A	0.02
G2A C18U G35C	0.16
G2A G17U G19A C45U	0.54
G2C C13U C37U G44C	0.37
